The campaign covered roughly 200,000 compounds. About 4,500 (2.2%) were called active. This list was built around the results that the source calls inconclusive (neither active nor inactive); the mix of calls is not that of the screen. Calls come from the whole dose curve; as a rule, active = well fitted inhibition curve with a large enough effect; inconclusive = small, poorly fitted or top-dose-only effect, or effect the other way; inactive = flat fitted curve, though single readings scatter. Potencies of inconclusive entries are doubtful fits and often do not repeat.
target: Cruzipain (Trypanosoma cruzi) (UniProt P25779); experiment: qHTS Assay for Promiscuous and Specific Inhibitors of Cruzain (without detergent); details: purified cruzain, Z-FR-AMC fluorescence, no detergent; note: nearly all actives have a fitted effect of over 40% in size;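 for max response, negative = inhibition: plate controls were enzyme without inhibitor for no effect and buffer without enzyme for full effect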
Method in brief: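 Detergent-free condition (0.00005% Triton X-100) in acetate buffer pH 5.5 with DTT. 1.5 nM enzyme and compound were pre-mixed 15 min, then 2 uM Z-FR-AMC substrate added; reaction progress from fluorescence change between first and third reads (60 s).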
Potency is the fitted concentration of half-maximal effect; tags give direction and shape of the fitted curve.

Sequence of UniProt P25779 (P25779 whole entry, looked up): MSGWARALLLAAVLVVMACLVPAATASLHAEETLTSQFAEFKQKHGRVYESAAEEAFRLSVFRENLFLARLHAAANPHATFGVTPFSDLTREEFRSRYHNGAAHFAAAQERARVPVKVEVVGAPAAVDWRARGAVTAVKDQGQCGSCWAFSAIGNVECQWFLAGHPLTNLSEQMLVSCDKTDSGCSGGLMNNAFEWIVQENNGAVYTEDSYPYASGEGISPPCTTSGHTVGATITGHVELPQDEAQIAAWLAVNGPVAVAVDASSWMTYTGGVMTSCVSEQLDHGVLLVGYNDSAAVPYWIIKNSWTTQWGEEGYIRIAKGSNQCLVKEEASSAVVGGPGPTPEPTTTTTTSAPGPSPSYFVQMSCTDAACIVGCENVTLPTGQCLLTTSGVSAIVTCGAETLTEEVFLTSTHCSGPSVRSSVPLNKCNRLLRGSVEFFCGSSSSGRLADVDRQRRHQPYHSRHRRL

| Compound | Potency | max response, negative = inhibition |
| --- | --- | --- |
| COc1ccc(C(C)=O)cc1CSc1nc2ccccc2c(=O)n1-c1ccccc1C | inconclusive: 31.6 µM [inhibitor, single point] | – |
| COc1ccc(N(CC(=O)N2CCc3ccccc32)S(=O)(=O)c2c(C)nn(C)c2C)cc1 | inconclusive: 31.6 µM [activator, single point] | – |
| Cc1ccc2c(c1)nc(NCCCO)n2C | – | inactive: 1.96% |
| COc1ccc(CCNC(=O)CCc2c(C)nc3cc(-c4cccc(F)c4)nn3c2C)cc1OC | inconclusive: 12.6 µM [activator, partial curve] | – |
| Cc1ccc(S(=O)(=O)NCCc2nnc3ccc(SCC(=O)Nc4ccc(F)cc4F)nn23)cc1 | – | inactive: -7.64% |
| CCc1cc2c(SCC(=O)C(C#N)=C3N(C)c4ccccc4N3C)ncnc2s1 | inconclusive: 39.8 µM [activator, single point] | – |
| CC1Cn2c(C(=O)NCc3ccccc3Cl)cc3cccc(c32)S1 (configuration not stated) | inconclusive: 31.6 µM [inhibitor, single point] | – |
| O=C(NCCO)c1ccc2nc(-c3ccco3)c(-c3ccco3)nc2c1 | active: 12.6 µM | – |
| Cc1cccc(NC(=O)c2cc3c(=O)n(Cc4cccnc4)ccc3nc2C)c1 | inconclusive: 39.8 µM [activator, single point] | – |
| C=Cn1ccnc1P(=S)(c1c(C)nn(-c2ccccc2)c1C)c1nccn1C=C | inconclusive: 25.1 µM [activator, partial curve] | – |
| CC(C)Oc1ccc(C(=O)OC(C)C(=O)Nc2nc(-c3cccc([N+](=O)[O-])c3)cs2)cc1 (configuration not stated) | inconclusive: 39.8 µM [inhibitor, single point] | – |
| COc1cc2c(cc1OC)C(/C=C/c1ccc(OC)c(OC)c1OC)=NCC2 | – | inactive: -3.99% |
| O=C(c1n[nH]c2ccccc12)N1CCN(S(=O)(=O)c2ccc3ccccc3c2)CC1 | inconclusive: 31.6 µM [inhibitor, single point] | – |
| O=C(c1cnccn1)N1CCC2(CC1)CCN(c1cccc(-c3ccccc3)c1)CC2 | inconclusive: 31.6 µM [activator, single point] | – |
| COc1cc(NC(=O)C2CCN(S(=O)(=O)c3c(C)noc3/C=C/c3ccccc3F)CC2)cc(OC)c1OC | inconclusive: 10 µM [activator, single point] | – |
| COc1cccc(/C=C/c2nc(C#N)c(N3CCN(C)CC3)o2)c1 | active: 3.16 µM | – |
| CC(=O)N(C)c1ccc(OCC(O)CN(Cc2ccco2)S(=O)(=O)c2ccc(C)cc2)cc1 (configuration not stated) | inconclusive: 31.6 µM [activator, partial curve] | – |

Reference: PubChem BioAssay AID1476 (National Center for Advancing Translational Sciences (NCATS), 2009)
